Results from article PMC4336329 (PLoS ONE, 2015).
Screen size: about 310,000 compounds; about 2,200 (0.71%) showed an effect of 50% or more. Effects have a minus sign here. The list shows a part of the results.

Molecular target: human ether-à-go-go-related gene (hERG) potassium channel (human, UniProt Q12809)
Experiment: primary screen, population patch clamp on CHO cells stably expressing hERG

Sequence of human ether-à-go-go-related gene (hERG) potassium channel (Q12809 whole entry, looked up): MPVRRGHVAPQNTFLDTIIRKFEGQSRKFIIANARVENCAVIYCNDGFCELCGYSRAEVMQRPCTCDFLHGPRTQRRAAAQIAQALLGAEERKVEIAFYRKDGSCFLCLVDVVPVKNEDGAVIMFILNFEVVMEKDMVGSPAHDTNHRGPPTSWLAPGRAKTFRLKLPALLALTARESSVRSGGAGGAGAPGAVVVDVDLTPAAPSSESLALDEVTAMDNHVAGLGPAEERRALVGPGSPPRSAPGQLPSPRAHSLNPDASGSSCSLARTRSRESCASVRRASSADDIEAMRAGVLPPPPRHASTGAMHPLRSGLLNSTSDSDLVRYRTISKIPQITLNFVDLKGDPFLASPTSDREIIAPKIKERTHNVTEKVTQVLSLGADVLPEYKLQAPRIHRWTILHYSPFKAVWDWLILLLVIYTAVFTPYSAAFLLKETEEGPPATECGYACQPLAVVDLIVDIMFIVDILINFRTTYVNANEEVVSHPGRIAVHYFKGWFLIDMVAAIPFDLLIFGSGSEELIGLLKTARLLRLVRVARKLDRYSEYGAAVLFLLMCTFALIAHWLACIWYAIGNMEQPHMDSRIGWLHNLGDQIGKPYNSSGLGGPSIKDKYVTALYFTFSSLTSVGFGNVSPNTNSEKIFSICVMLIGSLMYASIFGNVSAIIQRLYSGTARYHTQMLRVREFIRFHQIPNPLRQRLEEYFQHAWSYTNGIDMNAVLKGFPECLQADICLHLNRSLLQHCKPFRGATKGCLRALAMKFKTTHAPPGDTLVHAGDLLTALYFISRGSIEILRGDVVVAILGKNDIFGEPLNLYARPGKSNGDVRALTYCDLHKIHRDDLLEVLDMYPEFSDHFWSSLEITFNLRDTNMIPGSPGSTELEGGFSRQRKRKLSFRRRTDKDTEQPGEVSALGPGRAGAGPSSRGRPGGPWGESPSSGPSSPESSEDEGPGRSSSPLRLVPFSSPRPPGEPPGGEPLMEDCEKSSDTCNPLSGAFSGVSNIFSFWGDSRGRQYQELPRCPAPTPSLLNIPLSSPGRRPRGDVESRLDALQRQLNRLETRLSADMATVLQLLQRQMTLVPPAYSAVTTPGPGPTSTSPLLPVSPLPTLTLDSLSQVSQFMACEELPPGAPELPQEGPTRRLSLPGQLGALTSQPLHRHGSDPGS

| Structure (SMILES) | hERG current change (%, negative = inhibition) at 1uM [%] |
| --- | --- |
| C/C(N)=C(/C#N)C(=O)COC(=O)c1cc(-c2ccc(Br)cc2)nc2ccccc12 | 8.69 |
| CCOC(=O)c1ccc(NC(=O)CCNS(=O)(=O)c2cc(Br)cnc2N)cc1 | 18.4 |
| Cc1ccc(S(=O)(=O)Oc2ccc(C3C4=C(CCCC4=O)OC4=C3C(=O)CCC4)cc2)cc1 | -4.96 |
| COc1cc(OC)c(OC)cc1CNc1cc(C)ccc1OC | 3.33 |
| O=[N+]([O-])c1cccc(/C=N/NC2=NCCCCC2)c1 | -70.9 |
| Cn1c(CN2CCN(C(=O)c3ccccc3Cl)CC2)nc2cc([N+](=O)[O-])ccc21 | -46.2 |
| O=C(NCc1cccnc1)c1ccc(CS(=O)(=O)c2ccc(Cl)cc2)o1 | -1.09 |
| Nc1cc(C(=O)O)ccc1N1CCCCCC1 | 9.85 |
| O=c1o[nH]c(-c2ccccc2)c1N=Nc1c(F)cccc1Cl | 10.6 |
| Cc1cc(NC(=O)CCCn2cnc([N+](=O)[O-])n2)no1 | 9.05 |
| CC1CCCN(Cc2ccc(OCc3ccccc3)cc2)C1 (stereo not shown) | -10.3 |
| Cc1ccc(S(=O)(=O)N(C(=O)c2ccncc2)c2ccc(OC(=O)c3ccncc3)c3ccccc23)c(C)c1 | -14.2 |
| Cc1ccc(C(=O)Nc2ccc(-n3ccnc3P(=O)([O-])c3ccccc3)cc2)cc1.[K+] | 15 |
| COc1cc2[nH]c(=S)n(Cc3ccc(F)cc3)c(=O)c2cc1OC | 13.9 |
| CCOC(=O)COc1cc2c3c(c(=O)oc2cc1C)CCCC3 | 10.1 |
| Cc1ccc(C)c(NC(=O)NNC(=O)CCc2ccccc2)c1 | 17.8 |
| CC(=O)O[C@H]1C(=O)[C@@]2(C)C([C@H](OC(=O)c3ccccc3)[C@]3(O)C[C@H](OC(=O)[C@H](O)[C@@H](NC(=O)c4ccccc4)c4ccccc4)C(C)=C1C3(C)C)[C@]1(OC(C)=O)CO[C@@H]1C[C@H]2O (stereo partly shown) | 14 |
| CCCc1nc2sc3c(c2c(=O)[nH]1)CCCC3 | 5.75 |
| CC1CCN(c2ccccc2NC(=S)NC(=O)c2ccco2)CC1 | 8.35 |
| CC1=NN(Cc2c(C)nn(Cc3ccccc3)c2C)C(C)(C)C1 | 13.4 |
| Cc1ccc(CNC(=O)c2csc3c2CCCCC3)cc1 | 8.37 |
| CCOC(=O)C1CCCN(CCC(=O)Nc2c(C(=O)OC)[nH]c3cc(OC)ccc23)C1 (stereo not shown) | -38 |
| COc1ccc(CCNC(=O)c2cc3ccccc3oc2=O)cc1 | 23.1 |
| O=c1c2c(-c3cccs3)csc2ncn1-n1cccc1 | 12.7 |
| CCOc1cc(C=C(C#N)C#N)ccc1Oc1ccc([N+](=O)[O-])cn1 | 18 |
| Cc1cccc2c1CC(C)(C)N=C2C1=C(O)CCCC1=O | 4.53 |
| Cc1cccc(C(=O)NNC(=O)c2ccccc2-n2cccc2)c1 | 9.54 |
| CC(Nc1ccc2c(c1)OCCO2)C(=O)N1CCc2ccccc21 (stereo not shown) | 15.9 |

| Structure (SMILES) | hERG current change (%, negative = inhibition) at 1uM [%] |
| --- | --- |
| COc1cc(C2C(C#N)=C(SC)NC3=C2C(=O)CCC3)ccc1O (stereo not shown) | 7.21 |
| O=C(c1c(Cl)nc2sccn12)N(C(=O)c1c(Cl)nc2sccn12)c1ccc(Cl)cn1 | 7.62 |
| Nc1c(-c2nn[nH]n2)cnn1-c1cc(Cl)cc(Cl)c1 | 14.4 |
| COc1cc(/C=N/n2cnnc2)ccc1OCc1ccc(C)cc1 | 9.82 |
| CSc1nc2cc(Cl)ccc2s1 | -1.02 |
| O=C(Nc1nc(-c2ccccc2)cs1)C1CCCCN1S(=O)(=O)c1ccc(Cl)cc1 (stereo not shown) | 18.5 |
| COc1ccc(Cc2nnc(CCc3ccccc3)s2)cc1 | 8.13 |
| C=CCNC(=S)Nc1cccc2[nH]ncc12 | -4.89 |
| COCCn1c(SCC(=O)c2c(N)n(C3CC3)c(=O)[nH]c2=O)nnc1-c1ccc(Cl)cc1 | 13.5 |
| CCCN(Cc1nnc(-c2cccs2)o1)C(=O)c1cccc(S(=O)(=O)N2CCOCC2)c1 | 4.17 |
| Nc1nonc1-n1nnc(C(=O)N/N=C/c2ccncc2)c1CSc1ccccc1 | 11 |
| CCN1CCN(c2nc3ccccn3c(=O)c2/C=C(\C#N)S(=O)(=O)c2ccccc2)CC1 | -4.23 |
| CCCn1c(N)c(C(=O)CSc2nc3ccccc3n2CCC#N)c(=O)n(C)c1=O | -0.576 |
| CNc1ccccc1C(C)(C)c1cc(-c2cccc(Br)c2)no1 | -1.43 |
| COc1cc2c(cc1OC)C(c1cccnc1)CC(=O)N2 (stereo not shown) | -8.98 |
| CCN(CC)C(=O)Cn1nc(C)c2ccccc2c1=O | 11.3 |
| O=C(CO/N=C/c1ccccc1OC(F)F)NC1CCCC1 | 4.45 |
| COc1ccc(S(=O)(=O)n2nc(C)c(S(=O)(=O)N3CCOCC3)c2C)cc1 | 12.5 |
| COc1ccc(/C=N/NC(=O)c2ccc(COc3ccccc3Cl)o2)cc1 | 9.4 |
| O=C(CSc1nnc(NC(=O)c2c(F)cccc2F)s1)NCc1ccco1 | 0.575 |
| CCOc1ccc(-c2cc(C(=O)N3CCN(c4ccccn4)CC3)c3ccccc3n2)cc1 | 3.46 |
| CSc1nc(-c2ccco2)nn1C(=O)c1ccco1 | 10.9 |
| Cc1nn(C)c2c(=O)c(=O)c2n(C)[nH]1 | 13.1 |
| O=Cc1ccccc1OCc1nnsc1Cl | 12.5 |
| O=C(Nc1nc2ccccc2s1)C1CC(=O)N(c2ccc(Cl)cc2)C1 (stereo not shown) | 9.21 |
| COc1ccc(S(=O)(=O)Nc2c(C(=O)O)[nH]c3ccccc23)cc1OC | 3.58 |
| O.[I-].c1ccc2[nH]c(-c3cc[nH+]c4ccccc34)nc2c1 | 5.06 |
